# Data: PMC4336329 (PLoS ONE, 2015)
# The whole screen tested about 310,000 compounds, of which about 14,000 (4.5%) showed an effect of 50% or more. Effects have a minus sign here. Some of the results follow.
# Biological target: human ether-à-go-go-related gene (hERG) potassium channel (human, UniProt Q12809)
# Assay: primary screen, population patch clamp on CHO cells stably expressing hERG
# 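Also: peak tail current of the secondary pulse compared with the same well before compound.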
# Chain of human ether-à-go-go-related gene (hERG) potassium channel (Q12809 whole entry, looked up): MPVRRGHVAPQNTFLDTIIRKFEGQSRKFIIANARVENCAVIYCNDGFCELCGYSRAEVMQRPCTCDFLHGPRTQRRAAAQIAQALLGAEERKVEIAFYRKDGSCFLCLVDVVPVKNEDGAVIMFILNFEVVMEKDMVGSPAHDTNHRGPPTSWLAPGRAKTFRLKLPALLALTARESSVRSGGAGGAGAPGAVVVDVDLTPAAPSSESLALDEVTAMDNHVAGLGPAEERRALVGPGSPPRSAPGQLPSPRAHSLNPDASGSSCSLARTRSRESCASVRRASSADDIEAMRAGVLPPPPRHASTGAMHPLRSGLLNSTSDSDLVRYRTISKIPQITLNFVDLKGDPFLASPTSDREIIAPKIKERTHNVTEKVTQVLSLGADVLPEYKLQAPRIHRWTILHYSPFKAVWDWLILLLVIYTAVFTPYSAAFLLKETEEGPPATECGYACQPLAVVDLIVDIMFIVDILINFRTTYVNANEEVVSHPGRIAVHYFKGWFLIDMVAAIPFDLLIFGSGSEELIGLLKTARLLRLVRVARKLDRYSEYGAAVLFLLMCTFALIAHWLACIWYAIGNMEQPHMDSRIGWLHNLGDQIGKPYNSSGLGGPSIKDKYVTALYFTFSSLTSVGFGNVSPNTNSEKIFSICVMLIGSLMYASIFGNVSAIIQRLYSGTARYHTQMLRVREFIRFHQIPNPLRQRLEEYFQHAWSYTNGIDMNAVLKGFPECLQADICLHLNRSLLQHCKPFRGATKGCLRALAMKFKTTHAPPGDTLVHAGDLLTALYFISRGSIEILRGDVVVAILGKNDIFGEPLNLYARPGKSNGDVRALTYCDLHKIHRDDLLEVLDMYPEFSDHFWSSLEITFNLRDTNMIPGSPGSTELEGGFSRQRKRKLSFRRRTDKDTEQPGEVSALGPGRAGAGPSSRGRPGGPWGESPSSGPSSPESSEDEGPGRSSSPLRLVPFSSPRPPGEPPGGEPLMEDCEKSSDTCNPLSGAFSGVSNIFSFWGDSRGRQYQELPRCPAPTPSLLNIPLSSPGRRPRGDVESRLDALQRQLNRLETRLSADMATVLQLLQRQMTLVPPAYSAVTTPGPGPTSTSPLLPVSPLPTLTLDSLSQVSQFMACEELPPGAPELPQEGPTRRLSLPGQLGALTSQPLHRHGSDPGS
row,Compound,"hERG current change (%, negative = inhibition) at 10uM [%]"
1,CCOC(=O)/C=c1\s/c(=C\c2ccc(C#N)cc2)c(=O)n1CC(=O)Nc1cccc(C)c1C,18.6
2,Cc1cc(C)n(CCN(C)C(=O)c2cc(COc3c(F)cccc3F)on2)n1,7.78
3,Cc1ccccc1OCC(=O)Nc1ccc(N2CCN(C(=O)c3ccco3)CC2)cc1,-47.8
4,CSc1cccc(CN(C)C(=O)C2CCC(=O)N(CCCN3CCCC3=O)C2)c1 (centres unmarked),1.61
5,COc1ccc(N2CCN(C(=O)C3CCN(C(=O)c4cccc(Cl)c4)CC3)CC2)cc1,-29.8
6,CCN(CC)S(=O)(=O)c1ccc(OC)c(NC(=O)CCS(=O)(=O)Cc2ccccc2)c1,-28
7,O=C(Cn1nnc(-c2ccc(Cl)cc2)n1)N1CCN(C(=O)c2ccco2)CC1,-65
8,O=C(c1ccc(Cl)cc1)N1CCc2ccccc21,-4.8
9,Cc1cc(C(F)(F)F)nn1-c1nc(-c2ccco2)cc(C(F)(F)F)n1,-0.589
10,CN1CCN(Cc2oc(CO)cc(=O)c2O)CC1,4.85
11,CCN(C(=O)CCS(=O)(=O)c1cccc2nsnc12)c1cccc(C)c1,-12.8
12,Cc1ccc2ccc(C)[n+](CCCS(=O)(=O)[O-])c2c1,16.7
13,CCOC(=O)[C@@H]1[C@H]2COc3ccc(Br)cc3[C@@H]2N2C(=O)N(c3ccc(C(F)(F)F)cc3)C(=O)[C@@]12C,7.76
14,Cc1cc(C)c(OCC(=O)OCC(=O)N2CCc3ccccc3C2)c(C)c1,-19
15,COc1ccc(C(c2c(NC(C)=O)sc3c2CCCC3)N2CCN(CCO)CC2)cc1OC (centres unmarked),-7.6
16,Cc1ccc(C(=O)N2CCCN(c3nc4cc5c(cc4cc3C#N)OCO5)CC2)cc1,-0.619
17,CCN(C(=O)COc1cccnc1[N+](=O)[O-])C1CCS(=O)(=O)C1 (centres unmarked),-0.18
18,CCN(CC)C(=O)C1CCCN(c2ccc([N+](=O)[O-])cc2/C=N/NC(=O)c2cccc(Br)c2)C1 (centres unmarked),-0.713
19,CN(C(=O)C1CCCCC1)C1(C)CCS(=O)(=O)C1 (centres unmarked),-2.29
20,O=C1CN(C(=O)COC(=O)c2cnc(Cl)c(Cl)c2)c2ccccc2N1,-6.7
21,Oc1ccc(CNc2ccccc2F)c2cccnc12,14.5
22,COc1cccc(CC(=O)OCC(=O)NC2(C#N)CCCC2)c1,-1.39
23,COc1nc(C)ccc1-c1noc(-c2cccnc2)n1,10.1
